In US6448281B1 (Boehringer Ingelheim (Canada) Ltd., priority 2000, dated 2002) one finds IC50 data, which are given here for 49 compounds.

The structures appear in SMILES notation. Bounds are passed on as bounds.

The target in this test is hepatitis C virus RNA dependent polymerase (NS5B) (Hepacivirus hominis (Hepatitis C virus), UniProt P26663). The test can be described thus: Inhibition of NS5B RNA dependent RNA polymerase activity (SPA, UMP-[5,6 3H] incorporation).
Where [1] appears, read: IC50 μM, first compound table (printed title TABLE 10; Table 1).

Usually IC50 stands for the midpoint of a concentration-inhibition curve. On to `O=C(N[C@@H](Cc1c[nH]c2ccc(-c3nnn[nH]3)cc12)C(=O)O)c1ccc2c(c1)nc(-c1ccoc1)n2C1CCCCC1` [Entry 11022, (S)-2-{[1-(1-Cyclohexyl-2-furan-3-yl-1H-benzoimidazol-5-yl)-methanoyl]-amino}-3-[5(1H -tetrazol-5-yl)-1H-indol-3-yl]-propionic Acid], for which the IC50 (IC50, Table 11) is under 1 µM.

`O=C(N[C@@H](Cc1c[nH]c2ccc(O)cc12)C(=O)O)c1ccc2c(c1)nc(-c1cccc(Oc3ccccc3)c1)n2C1CCCCC1` [Entry 2084] returned an IC50 (IC50 μM, Table 2) of 1 to 5 µM.

Compound `CNc1nc([C@H](Cc2c[nH]c3ccc(O)cc23)NC(=O)c2ccc3c(c2)nc(-c2ccoc2)n3C2CCCCC2)cs1` [Entry 14004, 1-Cyclohexyl-2-furan-3-yl-1H-benzimidazole-5-carboxylic Acid [(S)-2-(5-Hydroxy-1H-indol-3-yl)-1-(2-methylamino-thiazol-4-yl)-ethyl]-amide] returned an IC50 (IC50, Table 14) of under 1 µM.

As to `NC(=O)[C@H](Cc1ccc(O)cc1)NC(=O)c1ccc2c(c1)nc(-c1ccoc1)n2C1CCCCC1` [Entry 16021], the IC50 (IC50, Table 16) was under 1 µM.

`O=C(N[C@H]1CC[C@H](NCc2ccccc2C(=O)O)CC1)c1ccc2c(c1)nc(-c1ccoc1)n2C1CCCCC1` [Entry 1269] gave an IC50 under setting [1] of 10 to 25 µM.

In turn, `O=C(Nc1ccc(-c2ccc(C(=O)O)o2)cc1)c1ccc2c(c1)nc(-c1ccoc1)n2C1CCCCC1` [Entry 1239] showed an IC50 under setting [1] of 1 to 5 µM.

In turn, `NC(=O)[C@H](Cc1c[nH]c2ccc(O)cc12)NC(=O)c1ccc2c(c1)nc(-c1ccoc1)n2C1CCCCC1` [Entry 13001, 1-Cyclohexyl-2-furan-3-yl-1H-benzimidazole-5-carboxylic Acid [(S)-1-Carbamoyl-2-(5-hydroxy-1H-indol-3-yl)-ethyl]-amide] gave an IC50 (IC50, Table 13) of under 1 µM.

With `[N-]=[N+]=Nc1cc(C[C@H](NC(=O)c2ccc3c(c2)nc(-c2ccoc2)n3C2CCCCC2)C(=O)O)ccc1OCC(=O)O` [Entry 16063, (S)-3-(3-Azido-4-carboxymethoxy-phenyl)-2-{[1-(1-cyclohexyl-2-furan-3-yl-1H-benzimidazol-5-yl)-methanoyl]-amino}-propionic Acid], the IC50 (IC50, Table 16) is under 1 µM.

With `O=C(NC1CCNC1)c1ccc2c(c1)nc(-c1ccoc1)n2C1CCCCC1` (stereo not shown) [Entry 1180], under setting [1], the IC50 fell in the range of 5 to 10 µM.

`COC(=O)C(NC(=O)c1ccc2c(c1)nc(-c1ccoc1)n2C1CCCCC1)c1ccc(OC)c(OC)c1` (stereo not shown) [Entry 1003] returned an IC50 under setting [1] of 5 to 10 µM.

Regarding `O=C(O)COc1ccc2[nH]cc(C[C@H](NC(=O)c3ccc4c(c3)nc(-c3ccc(F)cc3)n4C3CCCCC3)C(=O)O)c2c1` [Entry 12023], the IC50 (IC50, Table 12) was under 1 µM.

As to `Nc1ccc(-c2nc3cc(C(=O)N[C@@H](Cc4c[nH]c5ccc(O)cc45)C(=O)O)ccc3n2C2CCCCC2)cn1` [Entry 2114], the IC50 (IC50 μM, Table 2) was 1 to 5 µM.

Take `O=C(NC(Cc1c[nH]c2ccc(O)cc12)c1ccccn1)c1ccc2c(c1)nc(-c1ccoc1)n2C1CCCCC1` (racemic) [Entry 11032, 1-Cyclohexyl-2-furan-3-yl-1H-benzimidazole-5-carboxylic acid [2-(5-Hydroxy-1H-indol-3-yl)-1-pyridin-2-yl-ethyl]-amide]: the IC50 (IC50, Table 11) was under 1 µM.

In the case of `CC(C)n1c(-c2ccoc2)nc2cc(C(=O)N[C@@H](Cc3c[nH]c4ccc(O)cc34)C(=O)O)ccc21` [Entry 3033], the IC50 (IC50 μM, Table 3) was 1 to 5 µM.

Take `O=C(N[C@@H](Cc1c[nH]c2ccc(O)cc12)c1cscn1)c1ccc2c(c1)nc(-c1ccccn1)n2C1CCCCC1` [Entry 15001]: the IC50 (IC50, Table 15) was under 1 µM.

Under setting [1], `CC(CC(=O)Nc1ccc(/C=C/C(=O)O)cc1)NC(=O)c1ccc2c(c1)nc(-c1ccoc1)n2C1CCCCC1` (stereo not shown) [Entry 1162] displayed a half-maximal inhibitory concentration (IC50) of 1 to 5 µM.

On to `O=C(O)c1cccc(CN[C@H]2CC[C@H](NC(=O)c3ccc4c(c3)nc(-c3ccoc3)n4C3CCCCC3)CC2)c1` [Entry 1290], for which the half-inhibitory concentration (IC50) under setting [1] was 1 to 5 µM.

In turn, `CC1CCCCC1n1c(-c2ccccn2)nc2cc(C(=O)O)ccc21` (stereo not shown) [Entry 7001] gave an IC50 (IC50 μM, Table 7) of 10 to 25 µM.

With `COC(=O)[C@H](Cc1ccc(-n2cc(C(=O)O)nn2)cc1)NC(=O)c1ccc2c(c1)nc(-c1ccoc1)n2C1CCCCC1` [Entry 16033], the IC50 (IC50, Table 16) was under 1 µM.

Take `Cn1nnnc1-c1ccc(C[C@H](NC(=O)c2ccc3c(c2)nc(-c2ccoc2)n3C2CCCCC2)C(=O)O)cc1` [Entry 16037]: the IC50 (IC50, Table 16) is under 1 µM.

Turning to `O=C(N[C@@H](Cc1c[nH]c2ccc(O)cc12)C(=O)O)c1ccc2c(c1)nc(-c1ccno1)n2C1CCCCC1` [Entry 2128], the IC50 (IC50 μM, Table 2) was in the range of 1 to 5 µM.

Consider `O=C(O)Cc1ccc(C[C@H](NC(=O)c2ccc3c(c2)nc(-c2ccoc2)n3C2CCCCC2)C(=O)O)cc1` [Entry 16002, (S)-3-(4-Carboxymethyl-phenyl)-2-{[1-(1-cyclohexyl-2-furan-3-yl-1H-benzoimidazol-5-yl)-methanoyl]-amino}-propionic Acid], for which the IC50 (IC50, Table 16) was under 1 µM.

Take `O=C(O)c1ccc(-c2nc3cc(C(=O)N[C@@H](Cc4c[nH]c5ccc(O)cc45)C(=O)O)ccc3n2C2CCCCC2)cc1` [Entry 2087]: under “IC50 μM, Table 2”, the IC50 lay within 1 to 5 µM.

Where the note is “IC50, Table 16”, `NC(=O)[C@H](Cc1ccc(-c2nnn[nH]2)cc1)NC(=O)c1ccc2c(c1)nc(-c1ccoc1)n2C1CCCCC1` [Entry 16023] returned an IC50 of under 1 µM.

`O=C1NC(=S)SC1=Cc1ccc(C[C@H](NC(=O)c2ccc3c(c2)nc(-c2ccoc2)n3C2CCCCC2)C(=O)O)cc1` [Entry 16024, (S)-2-{[1-(1-Cyclohexyl-2-furan-3-yl-1H-benzoimidazol-5-yl)-methanoyl]-amino}-3-[4-(4-oxo-2-thioxo-thiazolidin-5-ylidenemethyl)-phenyl]-propionic Acid] came in with an IC50 (IC50, Table 16) of under 1 µM.

`COc1ccc(CCNC(=O)c2ccc3c(c2)nc(-c2cccc(O)c2)n3C2CCCCC2)cc1OC` [Entry 2002] returned an IC50 (IC50 μM, Table 2) of 10 to 25 µM.

As for `O=C(N[C@@H](Cc1ccc(O)c(O)c1)C(=O)O)c1ccc2c(c1)nc(-c1ccoc1)n2C1CCCCC1` [Entry 16015], for the setting “IC50, Table 16”, the IC50 is under 1 µM.

Under setting [1], `CC(CC(=O)O)NC(=O)c1ccc2c(c1)nc(-c1ccoc1)n2C1CCCCC1` (stereo not shown) [Entry 1159] displayed an IC50 of 10 to 25 µM.

Turning to `O=C(NCc1ccccc1)c1ccc2c(c1)nc(-c1ccoc1)n2C1CCCCC1` [Entry 1005], the IC50 under setting [1] lay in the range of 1 to 5 µM.

Under setting [1], `CC(C)(Oc1ccc(C[C@H](NC(=O)c2ccc3c(c2)nc(-c2ccoc2)n3C2CCCCC2)C(N)=O)cc1)C(=O)O` [Entry 1171, 2-[4-((S)-2-Carbamoyl-2-{[1-(1-cyclohexyl-2-furan-3-yl-1H-benzimidazol-5-yl)-methanoyl]-amino}-ethyl)-phenoxy]-2-methyl-propionic acid] yielded an IC50 of 10 to 25 µM.

For `O=C(NCC1CCNCC1)c1ccc2c(c1)nc(-c1ccoc1)n2C1CCCCC1` [Entry 1181], the IC50 under setting [1] lay within 5 to 10 µM.

For the compound `CCOC(=O)CCNC(=O)N1CCC(CNC(=O)c2ccc3c(c2)nc(-c2ccoc2)n3C2CCCCC2)CC1` [Entry 1212], under setting [1], the IC50 was 10 to 25 µM.

As for `O=C(O)CCc1cc(C[C@H](NC(=O)c2ccc3c(c2)nc(-c2ccoc2)n3C2CCCCC2)C(=O)O)ccc1O` [Entry 16065, (S)-3-[3-(2-caboxyethyl)-4-hydroxy-phenyl]-2-{[1-(1-cyclohexyl-2-furan-3-yl-1H-benzoimidazol-5-yl)-methanoyl]-amino}-propionic Acid], the IC50 (IC50, Table 16) is under 1 µM.

`COc1cccc(C(NC(=O)c2ccc3c(c2)nc(-c2ccoc2)n3C2CCCCC2)C(=O)O)c1` (stereo not shown) [Entry 1011] displayed an IC50 under setting [1] of 1 to 5 µM.

Consider `O=C(N[C@H](CO)c1ccccc1)c1ccc2c(c1)nc(-c1ccccn1)n2C1CCCCC1` [Entry 2010], for which the IC50 (IC50 μM, Table 2) is 10 to 25 µM.

Compound `CC[C@H](C)[C@@H](CO)n1c(-c2ccoc2)nc2cc(C(=O)N[C@@H](Cc3c[nH]c4ccc(O)cc34)C(=O)O)ccc21` [Entry 3029] showed an IC50 (IC50 μM, Table 3) of 1 to 5 µM.

Under setting [1], `CN(C)CCNC(=O)[C@H](Cc1ccc(O)cc1)NC(=O)c1ccc2c(c1)nc(-c1ccoc1)n2C1CCCCC1` [Entry 1117] gave an IC50 of 1 to 5 µM.

The compound `CC[C@H](C)[C@H](NC(=O)c1ccc2c(c1)nc(-c1ccccn1)n2C1CCCCC1)C(=O)O` [Entry 2017] came in with an IC50 (IC50 μM, Table 2) of 10 to 25 µM.

For the compound `Cc1c(C(=O)O)ccc2c1nc(-c1ccoc1)n2C1CCCCC1` [Entry 5004, 1-Cyclohexyl-2-furan-3-yl-4-methyl-1H-benzimidazole-5-carboxylic Acid], the IC50 (IC50 μM, Table 5) lay in the range of 1 to 5 µM.

`COc1ccc(C(NC(=O)c2ccc3c(c2)nc(-c2ccc(O)c(O)c2)n3C2CCCCC2)C(=O)O)cc1OC` (stereo not shown) [Entry 2029] had an IC50 (IC50 μM, Table 2) of 10 to 25 µM.

`COC(=O)[C@H](Cc1ccc(O)cc1)NC(=O)c1ccc2c(c1)nc(-c1ccoc1)n2C1CCCCC1` [Entry 1071] yielded a 50% inhibitory concentration (IC50) under setting [1] of 1 to 5 µM.

Compound `CCOc1ccc(C(NC(=O)c2ccc3c(c2)nc(-c2ccoc2)n3C2CCCCC2)C(=O)O)cc1OCC` (stereo not shown) [Entry 1013] displayed an IC50 under setting [1] of 1 to 5 µM.

With `O=C(N[C@@H](Cc1ccc(-n2cc(C(=O)O)nn2)cc1)C(=O)O)c1ccc2c(c1)nc(-c1ccoc1)n2C1CCCCC1` [Entry 16049], under “IC50, Table 16”, the half-maximal inhibitory concentration (IC50) is under 1 µM.

As for `O=C(O)COc1ccc2[nH]cc(C[C@H](NC(=O)c3ccc4c(c3)nc(-c3ccccn3)n4C3CCCCC3)C(=O)O)c2c1` [Entry 12003], the IC50 (IC50, Table 12) is under 1 µM.

Consider `O=C(N[C@H](CO)C(=O)O)c1ccc2c(c1)nc(-c1ccccn1)n2C1CCCCC1` [Entry 2020], for which the IC50 (IC50 μM, Table 2) was in the range of 10 to 25 µM.

Take `CC(C)Nc1nc([C@H](Cc2ccc(OCC(=O)O)cc2)NC(=O)c2ccc3c(c2)nc(-c2ccoc2)n3C2CCCCC2)cs1` [Entry 1133, {4-[(S)-2-{[1-(1-Cyclohexyl-2-furan-3-yl-1H-benzimidazol-5-yl)-methanoyl]-amino}-2-(2-isopropylamino-thiazol-4-yl)-ethyl]-phenoxy}-acetic Acid]: the IC50 under setting [1] lay within 1 to 5 µM.

Where the note is “IC50 μM, Table 2”, `C=CCC(NC(=O)c1ccc2c(c1)nc(-c1ccccn1)n2C1CCCCC1)c1ccc(OC)c(OC)c1` (stereo not shown) [Entry 2013] returned an IC50 of 10 to 25 µM.

In turn, `COc1cc(CNC(=O)c2ccc3c(c2)nc(-c2ccccn2)n3C2CCCCC2)ccc1O` [Entry 2057] registered an IC50 (IC50 μM, Table 2) of 5 to 10 µM.

Under setting [1], `O=C(N[C@@H](Cc1ccc([N+](=O)[O-])cc1)C(=O)O)c1ccc2c(c1)nc(-c1ccoc1)n2C1CCCCC1` [Entry 1017] gave an IC50 of 5 to 10 µM.
